Results as given in patent US20240262922A1 (Merck KGaA, published 2024).

T1: recombinant human OX40L protein (R&D Systems, cat. #1054-OX) (human, UniProt P23510 51-183)
T1 construct: Bought soluble recombinant protein; also called rhOX40L; recombinant soluble OX40L
T1 sequence: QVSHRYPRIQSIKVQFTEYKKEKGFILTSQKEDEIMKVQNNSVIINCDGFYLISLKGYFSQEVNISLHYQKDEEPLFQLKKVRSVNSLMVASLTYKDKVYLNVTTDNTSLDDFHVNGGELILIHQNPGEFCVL

T2: AVI-GST-His6-hOX40L (human, UniProt P23510 51-183)
T2 sequence: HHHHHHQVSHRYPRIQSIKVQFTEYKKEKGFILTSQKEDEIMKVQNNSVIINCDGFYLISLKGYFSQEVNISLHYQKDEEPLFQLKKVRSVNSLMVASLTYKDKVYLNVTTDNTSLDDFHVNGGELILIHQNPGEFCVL

T3: full-length human OX40L on the cell surface (human, UniProt P23510 1-183)
T3 construct: also called CHO-S-huOX40L; OX40L on MDDCs
T3 sequence: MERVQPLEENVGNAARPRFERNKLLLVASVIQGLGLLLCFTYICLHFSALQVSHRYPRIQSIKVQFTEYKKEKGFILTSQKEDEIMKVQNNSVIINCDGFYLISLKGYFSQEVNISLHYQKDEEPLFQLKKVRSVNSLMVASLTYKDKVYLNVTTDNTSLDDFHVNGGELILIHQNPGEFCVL


Columns and labels:
[1] = biological target: T1, recombinant human OX40L protein (R&D …); experiment: SPR steady state affinity to human OX40L; first of two numbers in the cell
Procedure: (§1) Recombinant OX40L proteins (human OX40L protein, R&D systems, cat. #1054-OX; cynomolgus monkey OX40L, Novoprotein cat. #CP72) were immobilized onto Biacore CM5 sensor chips and anti-OX40L antibodies were bound to this surface at a range of concentrations. The response at steady state was measured with a Biacore T200 instrument (GE Healthcare) and plotted against the concentration of antibody and fit to a 1:1 binding model. The steady state KD was determined as the antibody concentration at a response equal to half the maximal response (Rₘₐₓ).

[2] = biological target: T1, recombinant human OX40L protein (R&D …); experiment: SPR steady state, Biacore T200; OX40L immobilised on CM5, fusion protein in solution
Procedure: as §1

AVI-GST-His6-hOX40L = biological target: T2, AVI-GST-His6-hOX40L; experiment: cell-based or functional assay
[3] = biological target: T1, recombinant human OX40L protein (R&D …); experiment: cell-based or functional assay
[4] = biological target: T1, recombinant human OX40L protein (R&D …); experiment: SPR steady state affinity to human OX40L; second of two numbers in the cell
Procedure: as §1

[5] = biological target: T3, full-length human OX40L on the cell …; experiment: cellular binding to human OX40L (flow cytometry; cells not given)
[6] = biological target: T1, recombinant human OX40L protein (R&D …); experiment: SPR steady state affinity to human OX40L
Procedure: as §1

Kd [1] [nM]	Kd [2] [nM]	OX40L neutralization/OX40-HEK Reporter IC50 (AVI-GST-His6-hOX40L) [nM]	Primary T cell activation assay IC50 [3] [nM]	Kd [4] [nM]	EC50 [5] [nM]	Kd [6] [nM]	Binder
72.3	72.3	7.5	5.1	54.7	4.2		CTLA4_anti OX40L fusion protein 98C01 (Fc fusion, also called 98C01(1); 98C01 (1)) heavy: [sequence of about 120 residues not given]EPKSSDKTHTCPPCPAPPVAGPSVFLFPPKPKDTLMISRTPEVTCVVVDVSHEDPEVKFNWYVDGVEVHNAKTKPREEQYNSTYRVVSVLTVLHQDWLNGKEYKCAVSNKALPSSIEKTISKAKGQPREPQVYTLPPSREEMTKNQVSLTCLVKGFYPSDIAVEWESNGQPENNYKTTPPVLDSDGSFFLYSKLTVDKSRWQQGNVFSCSVMHEALHNHYTQKSLSLSPGAGGGGSGGGGSGGGGSQVQLQESGPGLVKPSETLSLTCTVSGGSISSSSYYWGWIRQPPGKGLEWIGGIGSVDYSGNTYYKPSLKSRVTISVDTSKNQFSLKLSSVTAADTAVYHCARHRGIYFFDYWGQGTLVTVSSASTKGPSVFPLAPSSKSTSGGTAALGCLVKDYFPEPVTVSWNSGALTSGVHTFPAVLQSSGLYSLSSVVTVPSSSLGTQTYICNVNHKPSNTKVDKRVEPKSC light: SYELTQPPSVSVALGQTARITCGGNNIENKNVHWYQQKPGQAPVLVIYRDSNRPSGIPERFSGSNSGNTATLSINRAQAGDEADYYCQVWDSNTVVFGGGTKLTVLGQPKAAPSVTLFPPSSEELQANKATLVCLISDFYPGAVTVAWKADSSPVKAGVETTTPSKQSNNKYAASSYLSLTPEQWKSHKSYSCQVTHEGSTVEKTVAPTECS
	68.5	> 161				68.5	CTLA4_anti OX40L fusion protein 30F02 (Fc fusion, also called 30F02 (1)) heavy: [sequence of about 120 residues not given]EPKSSDKTHTCPPCPAPPVAGPSVFLFPPKPKDTLMISRTPEVTCVVVDVSHEDPEVKFNWYVDGVEVHNAKTKPREEQYNSTYRVVSVLTVLHQDWLNGKEYKCAVSNKALPSSIEKTISKAKGQPREPQVYTLPPSREEMTKNQVSLTCLVKGFYPSDIAVEWESNGQPENNYKTTPPVLDSDGSFFLYSKLTVDKSRWQQGNVFSCSVMHEALHNHYTQKSLSLSPGAGGGGSGGGGSGGGGSQLQLQESGPGLVKPSETLSLTCTVSGASISSSNHYWGWGWIRQPPGKGLEWIGSIYYSGNTYYNPSLKSRVTISVDTSKNQFSLKLSSVTAADTAVYYCARHRGSYFFDHWGQGTLVTVSSASTKGPSVFPLAPSSKSTSGGTAALGCLVKDYFPEPVTVSWNSGALTSGVHTFPAVLQSSGLYSLSSVVTVPSSSLGTQTYICNVNHKPSNTKVDKRVEPKSC light: SYVLTQPLSVSVALGQTARITCGGNNIGDKNVHWYQQKPGQAPVLVISRDSNRPSGIPERFSGSNSGNTATLTISRAQAGDESDYYCQVWDSSTVVFGGGTKVTVLGQPKAAPSVTLFPPSSEELQANKATLVCLISDFYPGAVTVAWKADSSPVKAGVETTTPSKQSNNKYAASSYLSLTPEQWKSHKSYSCQVTHEGSTVEKTVAPTECS
57.9	57.9	8.3	3.5	63.9	1.7		CTLA4_anti OX40L fusion protein 98E10 (Fc fusion, also called 98E10(1); 98E10 (1)) heavy: [sequence of about 120 residues not given]EPKSSDKTHTCPPCPAPPVAGPSVFLFPPKPKDTLMISRTPEVTCVVVDVSHEDPEVKFNWYVDGVEVHNAKTKPREEQYNSTYRVVSVLTVLHQDWLNGKEYKCAVSNKALPSSIEKTISKAKGQPREPQVYTLPPSREEMTKNQVSLTCLVKGFYPSDIAVEWESNGQPENNYKTTPPVLDSDGSFFLYSKLTVDKSRWQQGNVFSCSVMHEALHNHYTQKSLSLSPGAGGGGSGGGGSGGGGSQLQLQESGPGLVKPSETLSLTCTVAGASVSSSSYYWGWIRQSPGKGLEWIGTINYGGSTYHNPSLKRRVTVSVDTSKNQFSLKLTSVTAADTAVYYCARHRGIYHFDYWGQGTLVTVSSASTKGPSVFPLAPSSKSTSGGTAALGCLVKDYFPEPVTVSWNSGALTSGVHTFPAVLQSSGLYSLSSVVTVPSSSLGTQTYICNVNHKPSNTKVDKRVEPKSC light: SYELTQPLSVSVALGQTARITCGGNNIENKNVHWYQQMPGQAPVLVIYRDSNRPSGIPERFSGSNSGNTATLTINRAQAGDEADYYCQVWDSNTVVFGGGTKVTVLGQPKAAPSVTLFPPSSEELQANKATLVCLISDFYPGAVTVAWKADSSPVKAGVETTTPSKQSNNKYAASSYLSLTPEQWKSHKSYSCQVTHEGSTVEKTVAPTECS
